This is one part of the list. The full chains were built here from the parent and the listed change. Values near 0.05 are background.
B1: TEV protease; numbered along this chain (parent)
chain: MGESLFKGPRDYNPISSSICHLTNESDGHTTSLYGIGFGPFIITNKHLFRRNNGTLVVQSLHGVFKVKDTTTLQQHLVDGRDMIIIRMPKDFPPFPQKLKFREPQREERICLVTTNFQTKSMSSMVSDTSCTFPSGDGIFWKHWIQTKDGQCGSPLVSTRDGFIVGIHSASNFTNTNNYFTSVPKNFMELLTNQEAQQWVSGWRLNADSVLWGGHKVFMVKPEEPFQPVKEATQL

Variants of: B1
Assay: raw area under fraction-flipped curve 0-4 h after induction (AUC4h, not background-subtracted), DNA-recorder readout of cleavage of the substrate (dimensionless); higher = more cleavage of the substrate by the protease variant
Details: temperature: 34 °C; time window: 0-4 h after rhamnose induction
Description: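 In vivo DNA recorder in E. coli TOP10(DE3) ΔrhaA at 34 °C. Each TEVp single-site mutant (parent TEVp 0) is paired with a single-site variant of the 7-mer TEVs (canonical ENLYFQ|S). The substrate sits between flexible linkers in a Bxb1-sfGFP-TEVs-SsrA fusion, so cleavage stabilises Bxb1 and speeds flipping of a recombination array, read by NGS. The value is the raw area under the fraction-flipped curve over 0-4 h after rhamnose induction (AUC4h), with ≥20 reads per time point. It is not background-subtracted; inactive controls average about 0.047.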
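Further: Bxb1 expression induced with 0.2% (w/v) L-rhamnose at OD600 near 0.5, cultures sampled hourly, flipped fraction per protease–substrate barcode pair counted by paired-end Illumina sequencing.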

Variant	area with substrate ENLYFCS	area with substrate ENLYFES	area with substrate ENLYFFS	area with substrate ENLYFIS	area with substrate ENLYFKS	area with substrate ENLYFMS	area with substrate ENLYFNS	area with substrate ENLYFPS	area with substrate ENLYFRS	area with substrate ENLYFSS	area with substrate ENLYFTS	area with substrate ENLYFHS	area with substrate ENLYFVS	area with substrate ENLYFWS	area with substrate ENLYFDS	area with substrate ENLYFGS	area with substrate ENLYFLS	area with substrate ENLYFYS	area with substrate ENLYFAS
Q75F	0.0583	0.0755	0.0641	0.0521	0.0615	0.0621	0.046	0.0514	0.0757	0.0581	0.0636	–	–	–	–	–	–	–	–
D161A	0.0409	0.053	0.0554	0.042	0.0449	–	0.0501	0.047	–	0.05	0.0465	0.0774	0.0057	0.0396	–	–	–	–	–
Q105D	0.0658	0.0688	0.0612	0.0616	0.0621	0.0756	0.0659	0.0627	0.0571	0.0604	0.045	0.0554	0.0395	0.0596	0.0479	0.0534	0.0556	0.0514	–
C111S	0.0629	0.0646	0.063	0.0566	0.0522	0.0649	0.0643	0.0517	0.0777	0.0486	0.0582	0.0855	0.0853	–	0.0565	0.0631	–	0.059	–
Q227V	–	–	0.07	0.0595	0.0571	0.0869	0.0639	0.0608	0.0633	–	–	0.0588	–	0.0472	0.0467	–	–	0.064	0.0556
Q227L	0.0582	–	0.0777	0.052	0.0678	0.072	0.0672	0.069	0.039	–	–	–	0.0725	–	0.0617	0.0564	–	0.0578	0.057
E3M	0.0644	0.0703	0.0555	0.0574	–	0.0775	0.0699	0.062	–	0.0563	–	–	–	0.0499	–	–	–	–	–
K142I	0.0501	0.0651	0.0686	0.0572	–	0.0406	0.0596	0.0561	0.0451	0.0697	0.0594	0.0633	–	0.0514	–	0.0414	0.0607	0.0325	–
M83D	0.0488	0.0437	0.061	0.0561	0.0596	0.0485	–	0.0522	0.0508	0.049	0.0442	–	0.0506	0.0422	0.0389	–	0.0505	0.0573	–
F226N	–	0.0505	0.0696	0.0575	0.0727	0.0806	0.0676	0.0598	0.06	0.0661	0.0615	0.0692	0.0614	0.0563	0.0698	–	0.0582	0.0581	0.0742
S18A	0.0581	0.0552	0.079	0.0503	0.0595	0.0638	0.0679	0.0557	–	0.0876	0.0559	–	0.029	0.0542	–	–	–	0.0575	–
S26L	0.0611	0.0512	0.0528	0.0627	–	–	0.07	0.0703	0.0523	0.0582	0.0586	0.0586	0.0633	–	0.0639	0.0691	–	0.061	–

Source: the supplement of paper PMC12217912
